# Some of the results follow.
# B1: 47740929_47741049_866_CDS_ENSG00000124214_ENST00000360426|human|control|control (ssRNA)
# RNA: GGGAGUUCUACAGUCCGACGAUCUUUCUUUUUGAUUCUAGGCUUUACUCGUUCAACUGCAGGCAGGGGCGGUAACUUCUUCAGCUCCUCAAGAACAGCUAUGGCGGCAUUUUUCUUUGAAAUCUUCUUGCUUUUCCCUUCACCCAACAGAGGAUUGAGCAUCA
# B2: chr3:176740097:176740098:-_ENSG00000177565_ENST00000430069|hu_mus|hu_hu_hu_mus_True|8_28 (ssRNA)
# RNA: GGGAGUUCUACAGUCCGACGAUCUGUUUUGUAUACCACAAAAGGAGGCACUUUCAGUAUCUGCAAAAGGUGUUUAGUCCUAAAACAUACUCACCUAGAGGAUAACUAAAACAGAAUAUCUGUUACACUAGUAUCUAUACUCCACAACAGAGGAUUGAGCAUCA
# B3: chr7:32526529:32526530:-_ENSG00000106355_ENST00000409909|hu_hu|FALSE|FALSE (ssRNA)
# RNA: GGGAGUUCUACAGUCCGACGAUCAUGCACCUGUUCAAAUCAAAGUUCAUCAUUUUGUUUGGAACAACUUUUGUUUGAGAAUCAAAUGGUCACGUAAAUGACAAAACAAAUAAGCAUAUAAUGACAGAAAAGUAAGUGGCAAAACAACAGAGGAUUGAGCAUCA
# B4: chr8:81717444:81717445:+_ENSMUSG00000071064_ENSMUST00000098614|mus_hu|FALSE|FALSE (ssRNA)
# RNA: GGGAGUUCUACAGUCCGACGAUCGUAAUGUACACAAACCUUGACAGUAUGAUCAUCUGAACAUAAUAUGAAGAGUUAAAAAAAGGAUAGAAGAAAGAAAGUGCUGAGAACCCUAACUGCAUUACUAUAUGGAAAAAUAAGCUACAACAGAGGAUUGAGCAUCA
# B5: chr1:93988920:93988921:+_ENSG00000137942_ENST00000370253|hu_hu|motif|central (ssRNA)
# RNA: GGGAGUUCUACAGUCCGACGAUCCAGAUCAUGAGCAUAUCUCAUUAAUUCACCAUACACUCUGUGCGCCAUUUCUUCUGCGGCAACUUCUCGCUGUCCUGCAUAGUCAUUUAACUCAUUAAGGAUAUUAAAAAAGGCUACACACAACAGAGGAUUGAGCAUCA
# B6: 79978152_79980979_818_3pUTR_ENSMUSG00000021116_ENSMUST00000071230|mouse|control|control (ssRNA)
# RNA: GGGAGUUCUACAGUCCGACGAUCUCAUCUUCAUUCAAAUCUAAACUAUCCAAGAUAGAUGGGUCUGAGACUGCAUGCUUAAAAGCAUCGUAGGCACCGUAUCCAGGUCUCUUGUACUUGUCAUCGAAGACCCAGGCAGUCCUCCAACAGAGGAUUGAGCAUCA
# Molecular target: T1, UNK ZnF1-3 (human, UniProt Q9C0B0 31-174)
# T1 sequence: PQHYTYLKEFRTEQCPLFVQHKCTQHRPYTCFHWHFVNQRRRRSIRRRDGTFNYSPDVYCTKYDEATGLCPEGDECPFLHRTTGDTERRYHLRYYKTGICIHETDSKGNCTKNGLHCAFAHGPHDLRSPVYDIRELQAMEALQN
# Assay: nsRBNS (natural sequence RNA bind-n-seq); RBNS binding buffer (assumed for nsRBNS): 25 mM Tris pH 7.5, 150 mM KCl, 3 mM MgCl2, 0.01% Triton X-100, 500 ug/ml BSA, 20 U/ml SUPERase-In, 4 C; UNK is unkempt and MSI1 is Musashi-1; names of the RNAs are library labels; protein concentration not given here; high values mean tight binding
row,Binder,binding signal [enrichment R]
1,B1,0.602
2,B2,0.651
3,B3,1.53
4,B4,1.79
5,B5,1.31
6,B6,0.679

# Source: publication PMC12136788
